Test results as given in US20230365703A1 (SHANGHAI LYN CREST ENTERPRISE MANAGEMENT, published 2023).

Experiments:
[1] = target: T1, human CD20 on cells (CHO-K1-hCD20 cells; Raji cells) (human, UniProt P11836 1-297); assay: flow cytometry on Raji cells (CD20+/CD47+; binding to CD20 and CD47 is not separated), anti-human IgG-FITC detection
T1 construct: whole, on cells; also called CD20 antigen
T1 sequence (looked up): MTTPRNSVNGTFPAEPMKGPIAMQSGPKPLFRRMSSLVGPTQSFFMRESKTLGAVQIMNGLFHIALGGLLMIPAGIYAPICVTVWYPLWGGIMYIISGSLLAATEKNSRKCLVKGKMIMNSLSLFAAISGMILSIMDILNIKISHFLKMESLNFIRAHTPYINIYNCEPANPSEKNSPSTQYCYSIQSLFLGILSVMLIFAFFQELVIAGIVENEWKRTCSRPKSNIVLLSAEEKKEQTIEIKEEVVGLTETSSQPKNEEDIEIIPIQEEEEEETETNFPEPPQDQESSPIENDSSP

[2] = target: T2, human CD47-Fc chimeric protein (human, UniProt Q08722 partial chain); assay: SPR (Biacore T200), human CD47-Fc captured on anti-human IgG (Fc) CM5 chip, analyte 50 nM, bivalent analyte model
T2 construct: also called hCD47; human CD47 protein; not shown: Fc part, not specified
T2 sequence (Q08722 19-139 limits assumed, stated change not applied): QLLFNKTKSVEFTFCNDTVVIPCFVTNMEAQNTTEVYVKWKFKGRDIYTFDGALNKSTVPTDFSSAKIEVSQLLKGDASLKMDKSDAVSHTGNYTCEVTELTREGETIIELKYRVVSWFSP

B1: LCB-002 (bispecific antibody, human IgG1, kappa)
heavy: EVQLVESGGGLVQPGRSLRLSCAASGFTFNDYAMHWVRQAPGKGLEWVSTISWNSGSIGYADSVKGRFTISRDNAKKSLYLQMNSLRAEDTALYYCAKDIQYGNYYYGMDVWGQGTTVTVSSASTKGPSVFPLAPSSKSTSGGTAALGCLVKDYFPEPVTVSWNSGALTSGVHTFPAVLQSSGLYSLSSVVTVPSSSLGTQTYICNVNHKPSNTKVDKKV[left out - human IgG1 Fc with changes]
chain: not shown
notes: also called CD20 × SIRPαD1 bispecific recombinant protein
binding result [1]: binds | Kd [2]: 52.8 nM
